Screen size: about 310,000 compounds; about 2,200 (0.71%) showed an effect of 50% or more. The effect is printed as a negative number. The list shows a part of the results.
Biological target: human ether-à-go-go-related gene (hERG) potassium channel (human, UniProt Q12809)
Assay: primary screen, population patch clamp on CHO cells stably expressing hERG

human ether-à-go-go-related gene (hERG) potassium channel, sequence (Q12809 whole entry, looked up): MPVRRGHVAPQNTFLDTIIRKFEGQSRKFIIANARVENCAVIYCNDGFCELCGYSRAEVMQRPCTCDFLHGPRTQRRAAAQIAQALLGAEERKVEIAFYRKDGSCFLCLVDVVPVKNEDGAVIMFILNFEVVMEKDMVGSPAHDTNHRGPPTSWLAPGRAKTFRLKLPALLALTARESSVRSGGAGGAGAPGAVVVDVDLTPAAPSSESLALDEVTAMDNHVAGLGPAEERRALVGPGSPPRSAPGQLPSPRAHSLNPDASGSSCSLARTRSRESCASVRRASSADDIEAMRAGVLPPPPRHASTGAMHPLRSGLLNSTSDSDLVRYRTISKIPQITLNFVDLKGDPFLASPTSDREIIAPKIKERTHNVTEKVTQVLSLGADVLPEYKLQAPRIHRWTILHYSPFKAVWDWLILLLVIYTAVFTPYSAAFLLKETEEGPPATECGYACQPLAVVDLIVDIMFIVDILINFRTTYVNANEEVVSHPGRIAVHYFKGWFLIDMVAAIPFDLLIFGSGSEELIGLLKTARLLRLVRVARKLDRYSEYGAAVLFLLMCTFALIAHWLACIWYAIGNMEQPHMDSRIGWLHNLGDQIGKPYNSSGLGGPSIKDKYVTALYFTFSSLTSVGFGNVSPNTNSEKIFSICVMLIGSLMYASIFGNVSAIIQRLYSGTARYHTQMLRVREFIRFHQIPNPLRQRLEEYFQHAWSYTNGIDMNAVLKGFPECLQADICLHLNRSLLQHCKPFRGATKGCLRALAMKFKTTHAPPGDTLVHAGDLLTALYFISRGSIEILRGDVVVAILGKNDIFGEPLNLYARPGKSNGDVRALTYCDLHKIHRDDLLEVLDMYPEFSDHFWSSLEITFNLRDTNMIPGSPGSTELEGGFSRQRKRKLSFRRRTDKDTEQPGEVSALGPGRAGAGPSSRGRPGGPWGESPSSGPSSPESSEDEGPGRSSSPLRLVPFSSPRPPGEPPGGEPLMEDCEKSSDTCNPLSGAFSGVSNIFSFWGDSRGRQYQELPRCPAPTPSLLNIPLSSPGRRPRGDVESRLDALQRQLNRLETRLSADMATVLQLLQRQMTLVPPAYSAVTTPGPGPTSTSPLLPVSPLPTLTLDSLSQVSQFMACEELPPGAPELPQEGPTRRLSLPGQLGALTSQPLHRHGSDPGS

In order of falling “hERG current change (%, negative = inhibition) at 1uM” value:
1. CCn1c(=O)cc(OCC(=O)NC2CCCCC2)c2ccccc21  25.1%
2. CC1CCC(NC(=O)C2COc3ccccc3O2)CC1 (stereo not drawn)  24.4%
3. CC(C)CC(NS(=O)(=O)c1cccc(C(=O)O)c1)C(=O)O (stereo not drawn)  21.8%
4. COc1ccccc1NC(=O)COC(=O)C12CC3CC(CC(Cl)(C3)C1)C2  19.3%
5. Cn1c(=O)c2c(nc(NC3CCCCC3)n2Cc2ccccc2)n(C)c1=O  18.9%
6. O=C(NCc1ccc(Cl)cc1)C1CCN(S(=O)(=O)c2ccc(N3CCCC3=O)cc2)CC1  17.8%
7. CC(C)CCOc1ccc(C(CC(N)=O)C(=O)O)cc1 (stereo not drawn)  17.4%
8. Cc1cc(C)c2c(C)nn(-c3ccccc3)c2n1  17.2%
9. C=C1CCN(C(C)C(=O)O)S(=O)(=O)c2ccccc21 (stereo not drawn)  17.1%
10. O=C(c1cccnc1)N1CCN(C(=O)c2cccs2)CC1  17%
11. CCc1c(C)nc2ncnn2c1N1CCCC(C(=O)Nc2ccc(NC(C)=O)cc2)C1 (stereo not drawn)  16.9%
12. Cc1ccc(NC(=O)c2ccc(N/N=C/c3cccc(O)c3)c([N+](=O)[O-])c2)cc1  16.6%
13. COC(C/C=C\[C@H](O)COCc1ccccc1)OC  16.4%
14. COCc1ccc(C(=O)Nc2ccccc2C(=O)NCc2cccnc2)cc1  16.1%
15. CCOC(=O)c1c(/N=C/c2c(O)n(-c3ccccc3F)c(=S)[nH]c2=O)sc2c1CCCC2  15.7%
16. CCOc1cc(NC(=S)NCCCN2CCOCC2)c(OCC)cc1NC(=O)c1cccs1  15.2%
17. O=S(=O)(Nc1cccc(-c2ccc(N3CCCCCC3)nn2)c1)c1ccc(C(F)(F)F)cc1  15.1%
18. CC(C)(C)C(=O)N1CCN(c2ncccc2C(F)(F)F)CC1  15.1%
19. Cc1ccccc1NC(=O)c1ccc(C)c(S(=O)(=O)N2CCN(C)CC2)c1  14.3%
20. CCC(C(=O)O)P(=O)(c1ccc(Cl)cc1)c1ccc(Cl)cc1 (stereo not drawn)  14.3%
21. Cc1nc(N(CCO)C2CCCCC2)c2nnn(Cc3ccccc3)c2n1  14.2%
22. Cc1cccc(-n2ncc3c2CCCC3NC(=O)C2CCOCC2)c1C (stereo not drawn)  14.1%
23. O=C(CSc1nnc(-c2cccnc2)o1)Nc1cccc(F)c1  12.6%
24. Cc1ccccc1NC(=O)CCN1C(=O)CSC1=O  12.4%
25. COc1ccc(S(=O)(=O)Nc2ccccc2C(=O)NCc2ccco2)cc1Br  12.4%
26. O=C(c1cc2ccccc2oc1=O)N(Cc1ccco1)C1CCS(=O)(=O)C1 (stereo not drawn)  12.3%
27. O=C(O)c1ccc(CN(Cc2ccccc2)S(=O)(=O)c2ccc(Cl)cc2)cc1  12.3%
28. O=C(Nc1ccccc1)N(Cc1cccs1)C1CCCC1  12.2%
29. Cc1cc2n(c1)CCn1c(C)ccc1-2  12.2%
30. COc1cccc(N2CCN(Cc3cccc(Cl)c3)CC2)c1  12%
31. O=C(O)C(=O)O.c1ccc(CN2CCN(CCOCCOc3ccc4c(c3)CCC4)CC2)cc1  11.6%
32. CCOc1ccccc1NC(=O)CCC(=O)Nc1ccc2nc(N3CCN(C)CC3)cc(C)c2c1  11.5%
33. COc1cn(-c2ccccc2)nc1C(=O)Nc1ccc(C)cc1Cl  11.4%
34. Cc1ccc(NC(=O)COC(=O)C(CC(C)C)N2C(=O)C3CC=CCC3C2=O)c(C)c1 (stereo not drawn)  11.3%
35. Cc1ccc(S(=O)(=O)NC(=S)NC2CCCCC2)cc1  11.2%
36. NC(=O)C1CCN(C(=O)CN(C2CCCCC2)S(=O)(=O)c2ccc(F)cc2)CC1  10.9%
37. O=C(NCc1ccccn1)c1ccc(NS(=O)(=O)c2cccc(Cl)c2)cc1  10.3%
38. Cc1ccc(Oc2ncccc2CO)cc1  10.2%
39. CNC(=O)O/N=C(\N)Cc1csc2ccccc12  9.71%
40. Cc1nonc1NC(=O)CSc1ccccn1  9.48%
41. O=C1NC(=O)C(c2cccs2)(c2cccs2)N1  9.06%
42. O=C(NCc1ccccn1)c1cn(Cc2ccccc2)nn1  8.87%
43. C#CCOCCOCCOCCNc1nc(N2CCN(C(=O)[C@H](CCCCN)n3cc(C(N)CC(C)C)nn3)CC2)nc(N2CCN(C(=O)[C@H](CCC(=O)O)n3cc(C(N)[C@H](C)CC)nn3)CC2)n1.Cl (stereo partly drawn)  8.86%
44. CCc1cc(=O)oc2cc(C)cc(OCC(=O)N3CCC(C(=O)O)(c4ccccc4)CC3)c12  8.76%
45. COc1ccc(S(=O)(=O)N2CCOC23CCN(C(=O)c2ccc(Cl)cc2Cl)CC3)cc1  8.53%
46. O=C1c2ccccc2C(=O)c2c1cccc2N1CCN(C/C=C/c2ccccc2)CC1  8.23%
47. Cc1cc(OCc2nn[nH]n2)c2c3c(c(=O)oc2c1)CCC3  8.06%
48. O=C(NCc1ccccc1)C1CCCN(C(=O)NCc2ccccc2)C1 (stereo not drawn)  7.68%
49. Cc1cc(C)n2ncc(/C(N)=N/OC(=O)Nc3ccccc3)c2n1  7.5%
50. Cc1ccc(O)c(NC(=O)c2ccc3c(c2)C(=O)N(Cc2cccnc2)C3=O)c1  7.17%
51. COc1cccc(N2CC(NS(=O)(=O)c3ccc4ccccc4c3)CC2=O)c1 (stereo not drawn)  7.14%
52. CC1=C(C(=O)OCc2ccccc2)C(c2ccc(C(C)(C)C)cc2)NC(=O)N1CCCCCC(=O)O (stereo not drawn)  7.11%
53. CC(C(=O)Nc1sccc1C(N)=O)N1C(=O)C2CC=CCC2C1=O (stereo not drawn)  7.06%
54. O=C(CCC(=O)OCCCC(F)(F)C(F)(F)F)Nc1ccc(Cl)cc1Cl  7%
55. CCOc1ccc(Cl)cc1CN1CCOCC1.Cl  6.88%
56. CC(C)(O)C#Cc1ccc(CN2CCN(C3CCCCC3)C(CCO)C2)cc1 (stereo not drawn)  6.43%
57. CC(C)CN(C(=O)COC(=O)COc1ccc2ccccc2c1)c1c(N)n(Cc2ccccc2)c(=O)[nH]c1=O  6.3%
58. O=[N+]([O-])c1ccccc1S(=O)(=O)N1CCN(Cc2ccccc2)CC1  6.14%
59. C=CCN(C#N)c1nc(OC)nc(N2CCCC2)n1  5.82%
60. Cc1cccc(C(=O)NNC(=O)c2ccccc2C)c1  5.64%
61. Cc1cc(C(=O)COC(=O)C2CCN(C(=O)c3ccc(Cl)cc3)CC2)c(C)n1CC1CCCO1 (stereo not drawn)  5.28%
62. Cc1ccnc(SCCn2c(N3CCCCC3)nc3c2c(=O)n(C)c(=O)n3C)n1  4.67%
63. Cc1ccc(C)c(NC(=O)COC(=O)c2cccc(S(=O)(=O)N3CCCCC3)c2)c1  4.61%
64. COc1ccc(-c2ccc(SCC(=O)N3CCOCC3)nn2)cc1  4.59%
65. Cc1ccc(S(=O)(=O)N2CCCN(C)c3nc4ccccc4nc32)cc1  4.38%
66. COc1cc(C2=Nc3ccc(Br)cc3C(c3ccccc3)N2CC(=O)NN)cc(OC)c1OC (stereo not drawn)  4.38%
67. Cc1ccc(CNC(=O)CCCCCNC(=O)N2CCn3c2nc2ccccc23)cc1  4.09%
68. CCOC(=O)C1CCCCN1Cc1cn(C)nc1-c1ccccc1F (stereo not drawn)  3.95%
69. CC1CN(CCOCCSc2ccc(Cl)cc2)CC(C)O1.O=C(O)C(=O)O (stereo not drawn)  3.82%
70. CCN1CCS/C1=C/C=C/C1=[N+](CC)CCS1.[I-]  3.64%
71. CCc1ccc(NC(=O)C2CCN(c3ncnc4c3nc3n4CCCCC3)CC2)cc1  2.6%
72. O=S(=O)(NCc1ccc2c(c1)OCO2)c1cccc(F)c1  2.41%
73. CC(=O)Nc1ccc(NC(=O)C(C)OC(=O)C2CCC2)cc1 (stereo not drawn)  1.84%
74. O=c1o[nH]c(-c2ccccc2)c1-c1ccccc1  0.753%
75. Cc1ccc(C(=O)OCC(=O)NC2CCCCC2)s1  0.683%
76. CCN1CCN(Cc2cc(C(C)(C)C)c(O)c(C(C)(C)C)c2)CC1  0.674%
77. Cc1nnc(NC(=O)C2CCCN(S(=O)(=O)Cc3ccccc3)C2)s1 (stereo not drawn)  0.612%
78. CC(Oc1ccc(F)cc1F)C(=O)NNC(=S)NCC1CCCO1 (stereo not drawn)  0.604%
79. O=C(Nc1ccc(-c2nc3ccccc3[nH]2)cc1)c1ccccc1NS(=O)(=O)c1ccc(F)cc1  0.294%
80. COc1ccc(NC(=O)CN(C)C(=O)COc2ccccc2Cc2ccccc2)cc1  -2.56%
81. COc1cc(C(=O)CCN2CCC(c3ccccc3)C2)cc(OC)c1OC.Cl (stereo not drawn)  -2.63%
82. Cc1ccc(N2CC(C(=O)NC(C)CCc3ccccc3)CC2=O)cc1 (stereo not drawn)  -5.2%
83. CC(=O)Nc1ccc(NC(=O)COc2ncnc3ccccc23)cc1  -6.16%
84. COc1ccc(-c2nn(C)c(=O)c3ccccc23)cc1CNC(=O)c1ccco1  -6.54%
85. COc1ccc(NC(=O)CCNS(=O)(=O)c2ccc(Br)s2)cc1  -9.16%
86. O=C1CC(NS(=O)(=O)c2ccc([N+](=O)[O-])cc2)CN1c1ccc(Cl)cc1 (stereo not drawn)  -20.1%
87. COc1ccc(N2CC(O)(c3ccc(OC(F)F)cc3)[N+]3=C2CCCC3)cc1.[Br-] (stereo not drawn)  -22.4%

Reference: paper PMC4336329 (PLoS ONE, 2015)
